{
  "source": "patent US12338291B2",
  "about": "“Humanized antibody molecules to CD138 and uses thereof” (VISTERRA, INC., priority 2019, dated 2025)",
  "molecules": {"B1": {"name": "mAb 4320: humanized anti-CD138 IgG1 kappa antibody; VH SEQ ID NO: 471, VL SEQ ID NO: 475; HC SEQ ID NO: 527, LC SEQ ID NO: 528 (antibody)", "heavy": "QVQLVQSGAEVKKPGASVKVSCKASGYSFSSYYMHWVRQAPGQGLEWMGTIHPSDSTTNYNQKFQGRVTMTVDTSTRTAYMELSSLRSEDTAVYYCANFVYWGQGTTVTVSSASTKGPSVFPLAPSSKSTSGGTAALGCLVKDYFPEPVTVSWNSGALTSGVHTFPAVLQSSGLYSLSSVVTVPSSSLGTQTYICNVNHKPSNTKVDKRV[human IgG1 Fc not spelt out]", "light": "DIVMTQTPLSLSVTPGQPASISCKSSKSLLYKDGKTYLNWFLQKPGQSPQLLIYVVSTRASGVPDRFSGSGSGTDFTLKISRVEAEDVGVYYCQQLVEYPYTFGQGTKLEIKRTVAAPSVFIFPPSDEQLKSGTASVVCLLNNFYPREAKVQWKVDNALQSGNSQESVTEQDSKDSTYSLSSTLTLSKADYEKHKVYACEVTHQGLSSPVTKSFNRGEC"}},
  "key": {"CD138+ LP-1 cells": {"test_system": "CD138+ LP-1 cells", "assay": "Antibody binding to LP-1 cells by flow cytometry", "set-up": "species or system human", "details": "FIG. 3", "protocol": "(§1) In one experiment, the humanized variants of monoclonal antibody 2810 were assessed for their capacity to bind to CD138 on the surface of cells. Briefly, the humanized variants of antibody 2810 were produced in HEK 293 cells following transient transfection. The antibodies were then serially diluted three-fold. Antibody binding to membrane CD138 was evaluated using the CD138+ human lymphoblastic myeloma cell line U266 and quantified by flow cytometry. Antibody cell binding was reported as geometric mean fluorescence intensity (MFI). Binding data were plotted using nonlinear regression analysis and a 4-parameter curve fit.\n(§2) First, humanized anti-CD138 antibody variants 3821, 4321, 4320, 4521, 4326, and 3820 were evaluated for binding to three different CD138+ multiple myeloma related cell lines: MM1.S, LP-1, and RPMI 8226. Antibody binding was measured by flow cytometry as described in Example 15."}, "CD138+ RPMI 8226 cells": {"test_system": "CD138+ RPMI 8226 cells", "assay": "Antibody binding to RPMI 8226 cells by flow cytometry", "set-up": "species or system human", "details": "FIG. 3", "protocol": "as §1, §2"}, "MM1.S (Luc) cells": {"test_system": "MM1.S (Luc) cells", "assay": "MM.1S Luc xenograft multiple myeloma model in C.B-17 SCID mice, dose escalation (Example 7)", "assay_type": "in vivo"}, "MM cell lines": {"test_system": "MM cell lines", "assay": "NK cell-based ADCC assays using human-derived NK cells", "details": "incl. bortezomib- or lenalidomide-resistant lines"}},
  "data": [
    {"molecule": "B1", "values": [
      {"measurement": "Antibody binding by flow cytometry", "setting": "CD138+ LP-1 cells", "value": "dose-dependent binding"},
      {"measurement": "Antibody binding by flow cytometry", "setting": "CD138+ RPMI 8226 cells", "value": "dose-dependent binding"},
      {"measurement": "Trend in mean body weight", "setting": "MM1.S (Luc) cells; 4 mg/kg mAb 4320", "value": "upward trend in mean body weight"},
      {"measurement": "Mean body weight change", "setting": "MM1.S (Luc) cells; FIG. 16", "value": "< 10", "unit": "%"},
      {"measurement": "Median % T/C (whole body BLI)", "setting": "MM1.S (Luc) cells; day 35, vs vehicle control", "value": "3.4-5.1%"},
      {"measurement": "Increased median lifespan in comparison to control group", "setting": "MM1.S (Luc) cells; e.g. 4 mg/kg dosing cohort, FIG. 15", "value": "≥ 20", "unit": "%"},
      {"measurement": "Dose response of efficacy (whole body or hind limb/spine signal)", "setting": "MM1.S (Luc) cells; mAb 4320 4, 8, 16 mg/kg", "value": "did not produce a clearly differentiated dose response"},
      {"measurement": "Tolerability", "setting": "MM1.S (Luc) cells; mAb 4320 4-16 mg/kg i.p. twice weekly", "value": "well tolerated"},
      {"measurement": "Animal deaths in treatment groups", "setting": "MM1.S (Luc) cells; mouse, in vivo", "value": "No animal deaths"},
      {"measurement": "ADCC cell killing of MM cell lines", "setting": "MM cell lines", "value": "potent cell killing activity"}
    ]}
  ]
}
